B1: PhoQ; a variant is named by its letters at X, in order, P23837 (parent)
chain: MKKLLRLFFPLSLRVRFLLATAAVVLVLSLAYGMVALIGYSVSFDKTTFRLLRGESNLFYTLAKWENNKLHVELPENIDKQSPTMTLIYDENGQLLWAQRDVPWLMKMIQPDWLKSNGFHEIEADVNDTSLLLSGDHSIQQQLQEVREDDDDAEMTHSVAVNVYPATSRMPKLTIVVVDTIPVELKSSYMVWSWFIYVLSANLLLVIPLLWVAAWWSLRPIEALAKEVRELEEHNRELLNPATTRELTSLVRNLNRLLKSERERYDKYRTTLTDLTHSLKTPLXXLQXXLRSLRSEKMSVSDAEPVMLEQISRISQQIGYYLHRASMRGGTLLSRELHPVAPLLDNLTSALNKVYQRKGVNISLDISPEISFVGEQNDFVEVMGNVLDNACKYCLEFVEISARQTDEHLYIVVEDDGPGIPLSKREVIFDRGQRVDTLRPGQGVGLAVAREITEQYEGKIVAGESMLGGARMEVIFGRQHSAPKDE

This is one part of the list.

In this experiment the parent is B1. Description: enrichment ratio after two sorts for PhoP signalling (ratio (wild type AVST 3.29)); higher = more functional. The settings on record: with PhoP (E. coli).
Turning to AEEG, the enrichment ratio was at most 0.25. As to PFDQ, the enrichment ratio was at most 0.25. On to IYVL, for which the enrichment ratio is at most 0.25. As to YPWQ, the enrichment ratio is at most 0.25.

As to YHPW, the enrichment ratio is at most 0.25. As for KVES, the enrichment ratio was at most 0.25. As to AGVC, the enrichment ratio worked out at 3.46. SYTT: the enrichment ratio was at most 0.25. Turning to FIPR, the enrichment ratio was at most 0.25.

With DFED, the enrichment ratio is at most 0.25. With VAMC, the enrichment ratio was at most 0.25.

Turning to MTLW, the enrichment ratio was at most 0.25. Consider VAHF, for which the enrichment ratio was at most 0.25.

Regarding HSIE, the enrichment ratio was at most 0.25. Take LVCW: the enrichment ratio is at most 0.25. As for SVGL, the enrichment ratio came out at 5.82. In the case of ISDI, the enrichment ratio is at most 0.25. Under WHFI stands at most 0.25. Consider GYNW, for which the enrichment ratio was at most 0.25. Regarding PTMS, the enrichment ratio was at most 0.25. On to MIAN, for which the enrichment ratio is 6.22. RYQT: the enrichment ratio is at most 0.25. VEMH: the enrichment ratio was found to be 5.99. For the variant ILMV, the enrichment ratio is at most 0.25. With PLRL, the enrichment ratio is at most 0.25. In the case of QHRQ, the enrichment ratio is at most 0.25. TKPQ: the enrichment ratio was at most 0.25. Regarding ICPQ, the enrichment ratio was at most 0.25. For the variant DRMF, the enrichment ratio is at most 0.25. As to VYWF, the enrichment ratio is at most 0.25. Take WPMC: the enrichment ratio was at most 0.25.

For the variant PQNH, the enrichment ratio was at most 0.25. On to KYGF, for which the enrichment ratio was at most 0.25. With FTKL, the enrichment ratio is at most 0.25. GYKH: the enrichment ratio was at most 0.25. For the variant GPYD, the enrichment ratio was at most 0.25. Turning to ILAR, the enrichment ratio was at most 0.25. Regarding MLHV, the enrichment ratio is at most 0.25. For RFPG, the enrichment ratio was at most 0.25. Next, SETC: 13.2.

For the variant HKSW, the enrichment ratio is at most 0.25. Take IDKG: the enrichment ratio is at most 0.25.

As to GSVG, the enrichment ratio was at most 0.25.

As to QQIG, the enrichment ratio was at most 0.25. In the case of VFPT, the enrichment ratio was at most 0.25.

With NCFG, the enrichment ratio is at most 0.25. Under FDHL stands at most 0.25. IAGA: the enrichment ratio is at most 0.25. Next, NPRH: at most 0.25; VIIR: 0.252; PIYQ: at most 0.25. Consider PVFQ, for which the enrichment ratio was at most 0.25. Under HISM stands at most 0.25; under TEMA, 38.6. Take FQPE: the enrichment ratio was at most 0.25. For LVGN, the enrichment ratio is at most 0.25.

Consider IVTK, for which the enrichment ratio was at most 0.25.

Consider MFAG, for which the enrichment ratio is at most 0.25. Under LECN stands at most 0.25. In the case of WIRC, the enrichment ratio was at most 0.25. Turning to PEMM, the enrichment ratio is at most 0.25. On to RHRI, for which the enrichment ratio was at most 0.25.

Regarding ERNE, the enrichment ratio is at most 0.25. Next, CTMY: 42.4. Under WHLR stands at most 0.25; under MLPL, at most 0.25.

On to AARD, for which the enrichment ratio is at most 0.25. Next, KGSN: at most 0.25; MYVT: at most 0.25; ELPL: at most 0.25. Regarding IWRD, the enrichment ratio was at most 0.25. In the case of WYEL, the enrichment ratio is at most 0.25.

Regarding ICSK, the enrichment ratio is at most 0.25. In the case of VAGE, the enrichment ratio was determined as 2.49. As for LVYE, the enrichment ratio was at most 0.25. As for RYPS, the enrichment ratio was at most 0.25. GRCC: the enrichment ratio was at most 0.25. Next, IWWV: at most 0.25; ESVW: at most 0.25; ICHD: at most 0.25. In the case of TMKS, the enrichment ratio is at most 0.25.

Consider YSII, for which the enrichment ratio is at most 0.25. With PKCP, the enrichment ratio was at most 0.25. For MKVL, the enrichment ratio was at most 0.25.

Take MGNY: the enrichment ratio is at most 0.25. RQKP: the enrichment ratio is at most 0.25. For DYGP, the enrichment ratio was at most 0.25. Under FILG stands 2.69; under HEDP, at most 0.25.

Turning to EFKQ, the enrichment ratio was at most 0.25. As for SAVP, the enrichment ratio was at most 0.25.

With MLIK, the enrichment ratio was at most 0.25. Regarding FVAG, the enrichment ratio was at most 0.25.

Regarding HYYF, the enrichment ratio is at most 0.25. Consider WLGG, for which the enrichment ratio is at most 0.25. On to EMMY, for which the enrichment ratio is at most 0.25. Turning to HDYN, the enrichment ratio was at most 0.25. Under PNLY stands at most 0.25; under YLYH, at most 0.25; under WLCN, at most 0.25. EDYM: the enrichment ratio was at most 0.25. As to YDKL, the enrichment ratio is at most 0.25. KFVR: the enrichment ratio was at most 0.25. Next, VDPA: at most 0.25; KTHS: 0.436; KDWC: at most 0.25. Under DTVA stands at most 0.25. Regarding HFKW, the enrichment ratio was at most 0.25. Consider TRGY, for which the enrichment ratio came out at 1.21. For the variant YQNH, the enrichment ratio was at most 0.25. In the case of VDLI, the enrichment ratio is at most 0.25. On to TMWL, for which the enrichment ratio is at most 0.25. With YPEA, the enrichment ratio was at most 0.25. YRAC: the enrichment ratio was at most 0.25. On to GRDG, for which the enrichment ratio was at most 0.25. As to RRDM, the enrichment ratio was at most 0.25.

For the variant LIDR, the enrichment ratio was at most 0.25. On to AGDK, for which the enrichment ratio was at most 0.25. Turning to WTPT, the enrichment ratio was at most 0.25. Take WNDG: the enrichment ratio is at most 0.25. With GPIL, the enrichment ratio was at most 0.25.

With IYWG, the enrichment ratio was at most 0.25. As for MKCA, the enrichment ratio is at most 0.25. Under FKLH stands at most 0.25; under NTSC, at most 0.25. On to GVLR, for which the enrichment ratio worked out at 5.94. Under TMHN stands at most 0.25; under DMFG, at most 0.25.

As to PDSK, the enrichment ratio is at most 0.25. Next, NHAM: at most 0.25; CTMF: 25.7; VDAM: at most 0.25. Regarding PFHL, the enrichment ratio is at most 0.25.

Take DITP: the enrichment ratio was at most 0.25.

For the variant QSII, the enrichment ratio was at most 0.25. Consider DRYK, for which the enrichment ratio was at most 0.25. Next, EKKS: at most 0.25; LSLW: at most 0.25. Under YVLN stands 1.05. As for ISWF, the enrichment ratio is at most 0.25. As for HLQH, the enrichment ratio was at most 0.25. For RNSG, the enrichment ratio was at most 0.25.

In the case of MRIN, the enrichment ratio is at most 0.25. Take KLCC: the enrichment ratio was at most 0.25. For the variant AWRT, the enrichment ratio was at most 0.25. In the case of TGYL, the enrichment ratio stood at 10.1.

Take FSQH: the enrichment ratio is at most 0.25. On to SEWP, for which the enrichment ratio is at most 0.25. Take QYMR: the enrichment ratio is at most 0.25. Under HGLM stands 16.4; under EPAS, at most 0.25; under PDYY, at most 0.25. As for PEPP, the enrichment ratio was at most 0.25.

The values above are taken from a collection of fitness landscapes (doi:10.1126/science.1257360).
